# Measurements: PMC4336329 (PLoS ONE, 2015)
# In all, about 310,000 compounds went through this assay and about 2,200 (0.71%) showed an effect of 50% or more. Effects have a minus sign here. The list shows a part of the results.
# Molecular target: human ether-à-go-go-related gene (hERG) potassium channel (human, UniProt Q12809)
# Assay: primary screen, population patch clamp on CHO cells stably expressing hERG
# Sequence of human ether-à-go-go-related gene (hERG) potassium channel (Q12809 whole entry, looked up): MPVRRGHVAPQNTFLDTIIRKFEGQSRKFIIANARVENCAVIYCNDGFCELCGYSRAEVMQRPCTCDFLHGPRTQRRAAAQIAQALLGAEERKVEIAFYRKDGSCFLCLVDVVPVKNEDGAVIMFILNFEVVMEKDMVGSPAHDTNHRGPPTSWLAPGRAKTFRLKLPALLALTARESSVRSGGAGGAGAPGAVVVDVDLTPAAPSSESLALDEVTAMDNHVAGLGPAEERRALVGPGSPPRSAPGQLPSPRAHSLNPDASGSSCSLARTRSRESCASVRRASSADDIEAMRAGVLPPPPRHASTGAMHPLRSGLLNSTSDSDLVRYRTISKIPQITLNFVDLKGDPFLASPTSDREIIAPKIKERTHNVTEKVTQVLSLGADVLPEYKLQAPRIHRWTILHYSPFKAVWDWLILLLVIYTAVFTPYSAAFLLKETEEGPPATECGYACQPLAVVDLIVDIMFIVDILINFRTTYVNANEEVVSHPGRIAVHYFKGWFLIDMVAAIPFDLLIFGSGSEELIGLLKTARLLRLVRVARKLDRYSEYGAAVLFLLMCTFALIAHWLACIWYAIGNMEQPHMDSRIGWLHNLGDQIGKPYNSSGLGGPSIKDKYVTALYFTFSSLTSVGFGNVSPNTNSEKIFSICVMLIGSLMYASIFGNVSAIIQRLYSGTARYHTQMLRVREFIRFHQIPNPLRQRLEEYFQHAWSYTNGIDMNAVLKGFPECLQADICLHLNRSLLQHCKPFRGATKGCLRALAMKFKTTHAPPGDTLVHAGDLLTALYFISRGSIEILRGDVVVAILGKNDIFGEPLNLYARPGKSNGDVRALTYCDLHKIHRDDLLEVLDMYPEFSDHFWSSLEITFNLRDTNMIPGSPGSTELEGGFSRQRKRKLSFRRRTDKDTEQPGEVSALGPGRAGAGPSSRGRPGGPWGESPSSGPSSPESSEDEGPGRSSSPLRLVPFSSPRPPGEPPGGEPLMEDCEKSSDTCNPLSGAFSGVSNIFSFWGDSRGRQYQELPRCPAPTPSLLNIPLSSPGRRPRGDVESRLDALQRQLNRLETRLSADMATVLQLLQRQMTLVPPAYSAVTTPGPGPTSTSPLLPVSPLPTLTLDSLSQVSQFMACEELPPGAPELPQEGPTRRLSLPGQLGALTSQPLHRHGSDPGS
row,SMILES,"hERG current change (%, negative = inhibition) at 1uM [%]"
1,CCCCCCc1c(O)nc(SCCN(C)C)[nH]c1=O,12
2,Cc1ccc(OCCCCn2ccnc2)c(Cl)c1,-8.3
3,CCOCc1nnc(NC(=O)COc2ccc3c(c2)OCO3)s1,10.2
4,Cc1nnc(N)nc1C,12.1
5,Cc1cccc(C)c1NC(=O)CN(C)C(=O)c1ccccc1SCC(=O)N1CCCC1,16.9
6,CCSc1nc2sc3c(c2c(=O)n1-c1ccccc1)CCN(C)C3,9.54
7,CCCNC(=O)c1ccc(SC)cc1OC,-6.13
8,O=C(CN1CCN(c2ccc(F)cc2)CC1)N1CCOCC1,11.3
9,CS(=O)(=O)N1CCN(CC(=O)NC2CCCCC2)CC1,-0.545
10,CC(C)Oc1ccc(Br)cc1C(=O)N/N=C/c1c[nH]c2ccccc12,10.9
11,Cc1ccc(C)c(NC(=O)CSc2ccc(S(=O)(=O)N3CCCC3)cn2)c1,13.2
12,C/C(=C\C(=O)c1ccc(Br)cc1)NNC(=O)c1ccccc1,12.1
13,CCC/C(O)=C1\C(=O)CC(c2ccccc2)CC1=NC (stereo not drawn),7.46
14,COC(=O)CC(c1ccc(C(C)C)cc1)n1cccc1 (stereo not drawn),12.4
15,COC(=O)c1c(S(=O)(=O)N2CCOCC2)c(C)n(C)c1C,11.5
16,O=C(NCc1ccncc1)NC12CC3CC(CC(C3)C1)C2,7.34
17,Cc1[nH]c(=O)[nH]c(=O)c1S(=O)(=O)N1CCCc2ccccc21,18.6
18,Cn1ccc(C(=O)N/N=C/c2c[nH]c3ccccc23)n1,23.6
19,O=C(NCCCNC(=O)c1cnccn1)c1ccc(Cl)cc1,4.3
20,O=C(CN(CC1CCCO1)C(=O)CNS(=O)(=O)c1ccc(Cl)cc1)NCc1ccco1 (stereo not drawn),11.5
21,COc1ccc(C(C)=O)cc1CSCc1cc(C(C)=O)ccc1OC,14.6
22,COc1cc(NC(=O)C2CCCN(S(=O)(=O)c3ccc4c(c3)oc(=O)n4C)C2)cc(OC)c1 (stereo not drawn),3.86

row,SMILES,"hERG current change (%, negative = inhibition) at 1uM [%]"
1,CC(=O)Nc1c(-c2ccccc2Cl)c(=O)c2ccccc2n1C,5.54
2,C[C@H](NC(=O)[C@@H]1CCC(=O)N1Cc1ccco1)c1ccccc1,15.8
3,O=C(Nc1ccc(S(=O)(=O)Nc2cnc3ccccc3n2)cc1)c1ccc(Br)o1,-8.17
4,N#CCN(C(=O)COC(=O)C1CC2CCCC(C1)C2=O)c1ccccc1 (stereo not drawn),14.8
5,COc1cccc(C2C(C(=O)c3sc(C)nc3C)=C(O)C(=O)N2CCN2CCOCC2)c1OC (stereo not drawn),10.3
6,COCCCN1C(=O)c2ccc(C(=O)Nc3ccc(OC)cc3OC)cc2C1=O,6.39
7,O=[N+]([O-])c1cccc(S(=O)(=O)NCCCN2CCOCC2)c1,6.54
8,COc1ccc(CCN2C(=O)CSC2=Nc2ccc(C(C)C)cc2)cc1OC,13.9
9,CC(Nc1cc(N2CCN(C(=O)C(C)(C)C)CC2)ccc1[N+](=O)[O-])c1ccccc1 (stereo not drawn),4.91
10,O=C(NCc1ccco1)C12CN(Cc3ccccc3)CC1C(c1cccc([N+](=O)[O-])c1)=NO2 (stereo not drawn),-24.8
11,CCCC[C@@H]1C[C@H]1[C@@H](NC(=O)c1cccs1)c1ccc(C(F)(F)F)cc1,11.3
12,CC(=O)Nc1nc(Cn2nnc(-c3ccc4c(c3)OCO4)n2)nc(N(C)C)n1,-1.73
13,COc1ccc(C)cc1NC(=O)C(C)N1CCOCC1.Cl (stereo not drawn),13.7
14,N#CCCCn1c(O)c(N=NC(=O)C(O)c2ccccc2)c2ccccc21 (stereo not drawn),7.62
15,CCc1ccccc1N(CC(=O)O)S(C)(=O)=O,2.48
16,Cc1ccc(NC(=S)NC(=O)Cc2ccccc2)c(O)c1,10.6
17,CCCc1nnc(NC(=O)Cn2c(=O)oc3cc(Br)ccc32)s1,3.83
18,O=C(Nc1nc2ccccc2s1)c1ccc(OCC2CCCO2)cc1 (stereo not drawn),3.81
19,O=C(CSc1nc(=O)n(CCCN2CCOCC2)c2c1CCCC2)Nc1cccc([N+](=O)[O-])c1,-39.5
20,CN(C(=O)COc1ccc2c(-c3ccccc3)cc(=O)oc2c1)C1CCS(=O)(=O)C1 (stereo not drawn),6.88
21,CCN1C(=O)[C@@H]2[C@@H](c3ccc(-c4ccc(OC)cc4)cc3)N3CCCC[C@@]3(C(=O)OC)[C@@H]2C1=O.O=C(O)C(F)(F)F,4.79
22,CC(C)(C)NC(=O)C(Cc1ccccc1)NS(=O)(=O)c1ccc2c(c1)CCC(=O)N2 (stereo not drawn),-2.91

row,SMILES,"hERG current change (%, negative = inhibition) at 1uM [%]"
1,O=C(CN1CCN(c2ccccc2O)CC1)Nc1ccc([N+](=O)[O-])cc1Br,7.54
2,COc1ccc(-c2c([C@H]3[C@@H]4C=CCC[C@@]4(C)C(=O)N3Cc3ccccc3)ccc3ccccc23)cc1OC,7.92
3,CCC(C)[C@H](NC(=O)C1(c2ccccc2)CCN(C(=O)OC(C)(C)C)CC1)C(=O)N[C@@H](C(=O)O)c1ccccc1 (stereo partly drawn),9.59
4,Cc1cc(C(=O)NCc2ccco2)cs1,13.5
5,Cc1cc(C)cc(NC(=S)N(Cc2ccc(Cl)cc2)Cc2ccc(C(=O)O)cc2)c1,6.22
6,CCOC(=O)C1CCCN(C(=O)N2CCOCC2)C1 (stereo not drawn),3.81
7,CCN(CC(=O)NC(C)(C)C)C(=O)c1ccc(Br)cc1,4.19
8,CC(=O)n1cc([C@H]2C=C(C(=O)NCc3ccccc3)O[C@@H](OCCCCO)C2)c2ccccc21,-3.26
9,N#C/C(=C\c1ccc(-c2ccc([N+](=O)[O-])cc2Br)o1)C(=O)N1CCN(c2ccccc2)CC1,6.49
10,COc1ncnc(OC)c1S(=O)(=O)NCc1ccccc1,14.3
11,CC(C)CC(=O)N1CC(C)N(C(=O)CC(C)C)CC1C (stereo not drawn),-2.69
12,Fc1ccccc1-c1csc(=Nc2cccnc2)n1CCCn1ccnc1,-35.1
13,CCOc1ccccc1-n1c(CN2CCN(C(=O)c3ccco3)CC2)nc2ccccc2c1=O,9.93
14,CC(NC(=O)C(C)(C)C)C(c1cccs1)N1CCN(Cc2ccccc2)CC1 (stereo not drawn),7.15
15,COC(=O)Cn1c(O)c(N=NC(=O)CNC(=O)c2ccncc2)c2ccccc21,13
16,CCOC(=O)c1ccc(N2C=C(C(=O)OC)C(c3cccc(O)c3)C(C(=O)OC)=C2)cc1,9.67
17,O=C(Nc1ccc(Cl)c([N+](=O)[O-])c1)c1ccncc1,1.24
18,CCCCn1c2c(c(=O)n(C)c1=O)C(CC(=O)OCC(=O)Nc1cccc(C(F)(F)F)c1)C(=O)N2 (stereo not drawn),2.43
19,COC(=O)c1c(NC(=O)c2ccc(C)cc2)sc(Cc2ccccc2)c1C,16.4
20,O=C(O)C1CC(c2ccccc2)=NO1 (stereo not drawn),7.87
21,CCc1nc2ccccc2c(C(=O)OCC(=O)C(C)(C)C)c1C,9.77
22,CCOC(=O)C1CCN(C=C2C(=O)N(C)C(=S)N(C)C2=O)CC1,6.1

row,SMILES,"hERG current change (%, negative = inhibition) at 1uM [%]"
1,COc1ccc(-c2nc(CSCC(=O)N3CCc4ccccc4C3)c(C)o2)cc1OC,1.32
2,COc1ccc(COC(=O)N/N=C(\C)CC(=O)Nc2c(C)cc(C)cc2C)cc1,10.7
3,CCC(C(=O)OC)n1cnc2c(cnn2-c2ccc(Cl)cc2)c1=O (stereo not drawn),7.2
4,COc1ccccc1N1CCN(C2CC(=O)N(C)C2=O)CC1 (stereo not drawn),15.7
5,NS(=O)(=O)c1ccc(CCNC(=O)c2ccc(CS(=O)(=O)c3ccc(Br)cc3)o2)cc1,48.8
6,COc1cccc(CNC(=O)CCn2ccc3cc(S(=O)(=O)N4CCCC4)ccc32)c1,12.4
7,Cc1ccc(N(CC(=O)NCc2ccc(F)cc2)C(=O)c2csnn2)cc1C,8.08
8,CCOC(=O)c1cc2c(s1)-c1ccccc1CC2,5.53
9,COc1ccccc1NC(=S)N(Cc1cccs1)C1CCCC1,4.67
10,O=C(Cn1c(-c2cscn2)nc2ccccc21)Nc1ccc2ccccc2c1,-5.3
11,N#Cc1cn(CCOc2ccc(F)cc2)c2ccccc12,5.93
12,CCCCC(O)(C(NC=O)C(=O)OC)C(F)(F)F (stereo not drawn),13.4
13,CCc1nccn1C(=O)c1cnn2c(C(F)F)cc(-c3ccc(C)cc3)nc12,8.51
14,Cc1cc(N2CCOCC2)nc2cc(O)ccc12,8.39
15,COc1ccccc1CNC(=O)CSc1nn2c(=O)c(C(C)(C)C)nnc2s1,14.3
16,COc1ccc(-c2nc(CS(=O)CC(=O)NCCN3CCCCCC3)c(C)o2)cc1OC (stereo not drawn),3.47
17,Cc1ccc(/C=C/C(=O)OCC(=O)Nc2ccc3[nH]c(=O)[nH]c3c2)o1,1.82
18,COc1ccc(CNC(=O)Cn2cc(C(F)(F)F)ccc2=O)cc1OC,12
19,Cc1c(C(=O)Nc2nnc(C3CC3)s2)oc2ccccc12,12
20,O=C(COc1cccc(Cl)c1)Nc1cc(S(=O)(=O)N2CCOCC2)ccc1N1CCOCC1,-9.87
21,COC(=O)C(O)(CC(=O)Nc1ccccc1OC)C(F)(F)F (stereo not drawn),5.94
